Source: article PMC12820563
This is one part of the list. The list includes weakly bound sequences.

The sequences below were run against T1, MBP-FoxP3dN (UniProt Q99JB6) (assay: PD-seq (MBP pull-down with sequencing)). Settings: 20 mM Tris-HCl pH 7.5, 100 mM NaCl, 1.5 mM MgCl2, 0.4 uM protein, 0.1 uM dsDNA library, 30 min, room temperature, amylose pull-down; high values mean tight binding; double strand, one strand shown.
T1 sequence: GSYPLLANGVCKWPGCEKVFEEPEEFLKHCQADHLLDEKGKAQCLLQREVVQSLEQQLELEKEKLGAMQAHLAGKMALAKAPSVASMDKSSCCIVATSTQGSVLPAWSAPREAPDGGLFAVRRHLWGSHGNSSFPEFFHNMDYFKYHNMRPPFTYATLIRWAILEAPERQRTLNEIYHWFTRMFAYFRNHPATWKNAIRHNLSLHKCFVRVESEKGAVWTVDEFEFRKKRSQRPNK

Row | Sequence | binding signal (RPM ratio (pull-down/input))
1 | GATGATTGTTCTCCCAGCTGATGAATTATAAGATTCGAGTAAACAAATTTTCCTAATCTTTCTGTTCAAGCGCCATCTAC | 0.351
2 | GATGATTGTTCTCCCAGCTGATGAATTATGGCCGTCGAGTAAACAAATTTTCCTAATCTTTCTGTTCAAGCGCCATCTAC | 0.618
3 | GATGATTGTTCTCCCAGCTGATGAATTGCACGCTTCGAGTAAACAAATTTTCCTAATCTTTCTGTTCAAGCGCCATCTAC | 1.06
4 | GATGATTGTTCTCCCAGCTGATGAATTCGGCGTATCGAGTAAACAAATTTTCCTAATCTTTCTGTTCAAGCGCCATCTAC | 1.17
5 | GATGATTGTTCTCCCAGCTGATGAATTTTTTCGGTCGAGTAAACAAATTTTCCTAATCTTTCTGTTCAAGCGCCATCTAC | 0.168
6 | GATGATTGTTCTCCCAGCTGATGAATTATCTTGATCGAGTAAACAAATTTTCCTAATCTTTCTGTTCAAGCGCCATCTAC | 0.337
7 | GATGATTGTTCTCCCAGCTGATGAATTGGATTGTTCGAGTAAACAAATTTTCCTAATCTTTCTGTTCAAGCGCCATCTAC | 2.54
8 | GATGATTGTTCTCCCAGCTGATGAATTATCGCACTCGAGTAAACAAATTTTCCTAATCTTTCTGTTCAAGCGCCATCTAC | 0.633
9 | GATGATTGTTCTCCCAGCTGATGAATTTCCGGGGTCGAGTAAACAAATTTTCCTAATCTTTCTGTTCAAGCGCCATCTAC | 0.175
10 | GATGATTGTTCTCCCAGCTGATGAATTCCCCTTTTCGAGTAAACAAATTTTCCTAATCTTTCTGTTCAAGCGCCATCTAC | 0.246
11 | GATGATTGTTCTCCCAGCTGATGAATTACGGCGCTCGAGTAAACAAATTTTCCTAATCTTTCTGTTCAAGCGCCATCTAC | 0.387
12 | GATGATTGTTCTCCCAGCTGATGAATTGATTTTGTCGAGTAAACAAATTTTCCTAATCTTTCTGTTCAAGCGCCATCTAC | 1.84
13 | GATGATTGTTCTCCCAGCTGATGAATTAAATAGGTCGAGTAAACAAATTTTCCTAATCTTTCTGTTCAAGCGCCATCTAC | 0.382
14 | GATGATTGTTCTCCCAGCTGATGAATTTATTTTATCGAGTAAACAAATTTTCCTAATCTTTCTGTTCAAGCGCCATCTAC | 3.67
15 | GATGATTGTTCTCCCAGCTGATGAATTGTCCGTGTCGAGTAAACAAATTTTCCTAATCTTTCTGTTCAAGCGCCATCTAC | 0.367
16 | GATGATTGTTCTCCCAGCTGATGAATTAACCGTTTCGAGTAAACAAATTTTCCTAATCTTTCTGTTCAAGCGCCATCTAC | 0.413
17 | GATGATTGTTCTCCCAGCTGATGAATTGAGAAACTCGAGTAAACAAATTTTCCTAATCTTTCTGTTCAAGCGCCATCTAC | 0.558
18 | GATGATTGTTCTCCCAGCTGATGAATTTGGCCATTCGAGTAAACAAATTTTCCTAATCTTTCTGTTCAAGCGCCATCTAC | 4.06
